Results taken from the supplement of paper PMC11417369.
± gives the standard deviation of the averaged measurements. Some of the results follow.

The sequences below were run on PfAP2-G AP2 domain (GST-tagged) (assay: gcPBM binding intensity (ln(normalized median fluorescence intensity)); higher = stronger DNA binding).
In short: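 Each value is the highest Masliner-normalised natural-log median intensity across replicate spots of either orientation of a probe. The probes were primer-extended double-stranded 36-bp intergenic genomic sequences on an Agilent 4 × 180k array, alongside negative controls, exposed for 1 h to GST-tagged P. falciparum DNA-binding domains expressed in E. coli. Bound protein was picked up with Alexa488 anti-GST antibody and scanned at 488 nm.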

| Sequence | gcPBM binding intensity (ln) |
| --- | --- |
| ATGTAAATATATATATGTACTAATTAGTAGTTTACG [XGTACX_site6271] | 11.1 ± 0.74 |
| ATCATGTTATATACATGTACATATATATATATATAA [XGTACX_site609] | 11 ± 0.52 |
| ATCATCCAAGATCTTACACACATATTAAATAAATAA [CACACA_site1473] | 10 ± 0.13 |
| TTTTATTTTTTTAAATGTACACATATTAATGTAAGG [XGTACX_site319] | 11.5 ± 1.1 |
| TCTTCCCAAATAAAGTGTACATAAATACGAATAATA [XGTACX_site4363] | 11.4 ± 0.74 |
| AAAATTAAAATATATACACACATATATATATTAAAT [CACACA_site4419] | 9.735 ± 0.021 |
| ATCAAAGATAAATTTACACACATATATATATATATA [CACACA_site2969] | 10.1 ± 0.4 |
| AAGATATTTGTATAATGTACAAAACTATATAAAACT [XGTACX_site1433] | 10.7 ± 0.26 |
| TAATGTATATGTAAATGTACATGTATATTATTTAAA [XGTACX_site1840] | 11 ± 0.58 |
| AACAATTATTTATCTACACACTTTTATGTTATTTAC [CACACA_site9] | 9.98 ± 0.16 |
| TAAAAAATATAAATGACACACACTTAAAAACAAAGA [CACACA_site671] | 10.2 ± 0.18 |
| TATAAATTAATGACATGTACATAAAAGTATAGATGT [XGTACX_site6534] | 11.3 ± 0.71 |
| TATTTTCATTTGCGCGCACACAATAATAATTTTTGG [CACACA_site3525] | 10.7 ± 0.33 |
| AAATATACAAAATATACACACATATTTATTTATGAT [CACACA_site2051] | 9.725 ± 0.049 |
| AATATATCATTATATAAACACACAATATGTTTTTTA [CACACA_site9260] | 9.55 ± 0.24 |
| AAAAATATATATATATATATATATATAAGGAATATA [XGTACX_negctrl_site450] | 9.49 ± 0.28 |
| AATAAATATATAAATACACACAAACATACATATATA [CACACA_site9340] | 9.97 ± 0.042 |
| TCTATTCATTTTGAAGGTACACATTTCTTTATAATA [XGTACX_site6218] | 11 ± 0.71 |
| GTATTAGATAAATACACACACAAGCATATATTTTTA [CACACA_site3431] | 9.92 ± 0.014 |
| CGTAAACAATTATGATGTACATAAAATATATATATA [XGTACX_site2705] | 11.3 ± 0.71 |
| AATACAATATAGTGAAAAATAATTAAATACAATAAG [XGTACX_negctrl_site161] | 9.81 ± 0.22 |
| ACAAAAAAAAAAATAACACACATGGGGGTGTATAAA [CACACA_site3797] | 10.7 ± 0.52 |

| Sequence | gcPBM binding intensity (ln) |
| --- | --- |
| TTGTTCCACAAAAATTTAGTCAAAAAAAAATAAAAA [TGCATGCA_negctrl_site546] | 10.2 ± 0.36 |
| TATGTGTATGGGAATGCATGTAAATATGTACATATA [TGCATGCA_site737] | 11.4 ± 0.84 |
| ATATATATATACATATGTACATATAAAATAATTTTG [XGTACX_site3731] | 11.1 ± 0.74 |
| TTAAATTTTTTTTTGTGTACGAAAAACAGAAAAAAT [XGTACX_site8625] | 11.4 ± 1 |
| ATATAGATATATAGTAGTACTTGTTATATAAGATAA [XGTACX_site6336] | 11.2 ± 0.77 |
| ACAGAGCTTTAAATACGTACATAATATATATTAAAT [XGTACX_site8221] | 11.6 ± 0.88 |
| TATTGATTTAGAAACACACACTCGAAGATGTTTAAC [CACACA_site1129] | 9.945 ± 0.078 |
| TTTAAAAAATGTTATATTATATAATTAAAAAAAAAA [CACACA_negctrl_site1509] | 9.57 ± 0.014 |
| ATATATATATATAAATGTACATTGTGTGTTGTAAGA [XGTACX_site2434] | 10.8 ± 0.38 |
| ATAAAAAAAAAATAATGTACTTATATATATATATAT [XGTACX_site8282] | 11.1 ± 0.82 |
| AAAAAAAAAAAAAAGAGTACACAGACGTTCAAAGGT [XGTACX_site7566] | 11.7 ± 0.77 |
| TGTATGTATTAATGCGCACACAAAAAATAACAATAT [CACACA_site1848] | 10.7 ± 0.34 |
| TATTAATTGTGGCACCTTGTATGTTTACAATGACAT [CACACA_negctrl_site1383] | 10.4 ± 0.11 |
| TTCTTCAAAAAAAATTGTACACATCTCTCAAATGTT [XGTACX_site2952] | 11.3 ± 0.78 |
| AATGGATGAATGAATGTATGAATGAATGTATGAATG [CACACA_negctrl_site91] | 9.84 ± 0.2 |
| GTATATTATTTACGTTTGCACTTCATTTTATAGTAA | 10.4 ± 0.24 |
| GTATTCATGCTAAAGGTGCAATAATTTTTATAATAA [GTGCAC_site9603] | 10.2 ± 0.21 |
| AAGATAAAATTATGTAGTACAAAAAAAAATAAAAAA [XGTACX_site139] | 11.7 ± 0.91 |
| ATCAAACCTTTTAAATGTACATTCGGAGTAAAAAAA [XGTACX_site282] | 10.9 ± 0.49 |
| ATGTATGTGTAACATAGTACTTTTTAAAAGGATATT [XGTACX_site5328] | 11 ± 0.58 |
| TATAGATACATATACACACACACACCCACATATATA [CACACA_site3436] | 10.4 ± 0.36 |
| TATTTTTTATAATAATGTACATATATATATATAATA [XGTACX_site2329] | 11.2 ± 0.62 |

| Sequence | gcPBM binding intensity (ln) |
| --- | --- |
| AATATCATATAAAAATGTACAAATTCTAAAACACGA [XGTACX_site1442] | 10.8 ± 0.45 |
| TACCTAATTCGGTCCCGTACAAGTTAGTTTCAATTC [XGTACX_site2703] | 10.9 ± 0.59 |
| TATTGGGGGTATAAACACAGTAAGTAAATAAATAAA [CACACA_negctrl_site1680] | 10.6 ± 0.54 |
| TTAAAAATGTTGGAAAGTACATATTTTTTAAAAGTA [XGTACX_site802] | 11.1 ± 0.61 |
| CGCCTATAAGCTTAGACACACAAATAAATAAATATA [CACACA_site1264] | 10 ± 0.12 |
| ATTATTTTATAATTCACACATAAATAAAAAAAAAAT [CACACA_site5290] | 9.84 ± 0.13 |
| CAATTTATAAAGAAAACACACATATACATATATACA [CACACA_site1260] | 9.98 ± 0.014 |
| TATTAAACAAATTATGCAAAAATAAATCAATATGTT [CACACA_negctrl_site171] | 9.915 ± 0.049 |
| TGATTTCCAGGTTATTGTACAAAATTAATTTTCGAA [XGTACX_site2491] | 10.9 ± 0.54 |
| AAAAGTTTTATTTAAATGAATTAATCTTTACTATAT [CACACA_negctrl_site282] | 9.47 ± 0.25 |
| ATATATATAAAACACACACACAAAAAAAATAAAGAC [CACACA_site117] | 10.4 ± 0.22 |
| TAAATAAATATATATACACACATATATATATATATA [CACACA_site598] | 10.2 ± 0.9 |
| TAAATATTATTTCATAGTACTTTTATTATTGATATA [XGTACX_site5566] | 11 ± 0.62 |
| TTTTGTAGTTTATAAATAAAAGAGAATATGGTGCTT [CACACA_negctrl_site413] | 9.93 ± 0.028 |
| ATATAATATAACAATACGCACACGTATACAAAAAAA [CACACA_site3151] | 10.5 ± 0.42 |
| CATATTGTCATTCTGGTGCACTTTTTTTTTTTTTTT | 10.8 ± 0.45 |
| ATGTAATCATTTTCGACTTTTTTTTTTTTTTTTTTT [CACACA_negctrl_site1132] | 10.6 ± 0.28 |
| AGGAAATGTTTATATACATGCATAATTAAATATAAT [TGCATGCA_site672] | 9.7 ± 0.18 |
| ATAAAATGCGCAAACACACACAAAAAAAAGATATAT [CACACA_site6875] | 10.12 ± 0.064 |
| TTTTTAATTAATCTTATAAATATTTATAAATATATA [CACACA_negctrl_site1485] | 9.725 ± 0.092 |
| ATTATATTTCAATTATGTACATATAAAATGAATAAA [XGTACX_site4204] | 11.3 ± 0.88 |
| TTTTTTTTTTTTTTTTTTTTCTTCATTTAATTTATA [GTGCAC_negctrl_site17] | 9.54 ± 0.15 |

| Sequence | gcPBM binding intensity (ln) |
| --- | --- |
| AATTTTCATTTTAGAAGTACACACAAAAAATAAAAT [XGTACX_site4426] | 11.7 ± 1.1 |
| TACTTAATTATAAGGACATGCACAAAAGGAATTATT [TGCATGCA_site468] | 10.7 ± 0.38 |
| TTTTCATGTTTTTTTCTTTATTTTTTTTTTTTTTTT [GTGCAC_negctrl_site511] | 9.97 ± 0.34 |
| TTTTTTTATTATTATTGTACAAGGCCTTAGGTGATT [XGTACX_site5050] | 10.8 ± 0.69 |
| TATTTACATATTTATATACACACTTTTGCGTGTCTG [CACACA_site1110] | 10.16 ± 0.042 |
| TTTTGTAAAATTAATTTATTATACATATATATTTCT [GTGCAC_negctrl_site728] | 9.75 ± 0.085 |
| TAATGTACTTAAACCGCACACATATAAAAAAATAAA [CACACA_site8926] | 11.3 ± 1.1 |
| TTATTTTAATTTTTGGTGCATATTCAAGTGTACCTT [GTGCAC_site9791] | 10.8 ± 0.67 |
| AATAAAAGGAATAATTGTACATAATGATTATACGTT [XGTACX_site7548] | 10.7 ± 0.32 |
| AAATAAAATACAATATGATAAAATGTTATCATATAT [CACACA_negctrl_site538] | 9.655 ± 0.035 |
| ATAAATAATATAAATACACACTAAAAAAGATATATA [CACACA_site6397] | 10.01 ± 0.014 |
| GTTGTAAAAAGAAAATGTACGTAATAAATATATATA [XGTACX_site3081] | 11.3 ± 0.81 |
| TATTTTTATTTATATACACACTTACATATTTATATT [CACACA_site7666] | 10.06 ± 0.078 |
| AGAATTTATAAAAACTGTACATATTTTCCAGTTATA [XGTACX_site2848] | 11.2 ± 0.9 |
| AATACTCCATTGTATAGTACATATATTTTTATTTAT [XGTACX_site3641] | 10.8 ± 0.44 |
| AATAAAAAAAAAAATAATATATATGTATAAATATAT [CACACA_negctrl_site1561] | 9.49 ± 0.071 |
| TTAAAAATGTTATAATGTACATATAATATTTTATGA [XGTACX_site5954] | 11.2 ± 0.6 |
| TTGCACTCGTAAAAAGCACACATATAAAAACATTTA [CACACA_site7997] | 10.3 ± 0.35 |
| ATTATAAATATAAATATAAATATATATTGTTCCGCA [TGCATGCA_negctrl_site470] | 9.49 ± 0.19 |
| TTTATCCTTCTTTTGAGTACTCAAAGAGACCTATAA [XGTACX_site8050] | 11.4 ± 0.86 |
| AAAAAAAACAGACACACACACAAATATTTATATATC [CACACA_site6342] | 10.2 ± 0.19 |
| TATATATATATATATATATATATTTTTATTATATAT [XGTACX_negctrl_site89] | 9.85 ± 0.67 |
